Experimental data taken from PubChem BioAssay AID588855 (National Center for Advancing Translational Sciences (NCATS), 2011).
Values joined by “and” are separate entries in the source; they are usually repeats but may differ in a detail not shown here. Equal values may be shown once. Screen size: about 410,000 compounds; about 5,000 (1.2%) were called active. This list was built around the results that the source calls inconclusive (neither active nor inactive); the mix of calls is not that of the screen. The call rests on the fitted dose curve; in most records, active means well fitted inhibition curve with a large enough effect; inconclusive means small, poorly fitted or top-dose-only effect; inactive means no such curve, though single readings can be large or run the other way. A potency beside an inconclusive call is a rough fit, not a confirmed value.

test: qHTS for Inhibitors of TGF-b; conditions: HepG2 CAGA-GFP TGF-b/SMAD3 reporter, GFP fluorescence, 18 h, TGF-beta stimulated, 500 pg/mL final; series mostly up to 46.1 µM; activity, negative = inhibition: at the top concentration; further: nearly all actives have a fitted effect of over 65% in size
How it was run: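 First, reporter cells (HEPG2 CAGA-GFP) rested 2 h at 37 degrees C. Next, compounds were pinned in and TGF-beta added to 500 pg/mL final. After 18 h, GFP was imaged per cell and summed per well.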
On the % scale 0 is the no-effect control and ±100 the full control effect; potency means the concentration at half of the fitted maximal effect; tags describe the fitted curve by direction and shape.

| Structure (SMILES) | Potency | activity, negative = inhibition |
| --- | --- | --- |
| O=C(Nn1c(C2CCCCC2)nc2ccccc2c1=O)c1ccc([N+](=O)[O-])cc1 | inconclusive: 22.4 µM [inhibitor, single point] |  |
| OC(c1ccc(Cl)cc1)c1ncc(-c2ccc(Cl)cc2)[nH]1 (stereo unspecified) | inconclusive: 22.4 µM [inhibitor, single point] |  |
| O=C(OC(C(=O)NCc1ccc2c(c1)OCO2)c1ccncc1)c1ccc(Cl)nc1 (stereo unspecified) |  | inactive: -1.15% |
| Cc1cccc(Cc2cnc(N3C(=N)SC(C)C3=O)s2)c1 (stereo unspecified) | inconclusive: 10 µM [inhibitor, partial curve, poor fit] |  |
| Cc1nc2sc(C(=O)c3ccccc3)c(N)c2c(C)c1C | inconclusive: 35.5 µM [inhibitor, partial curve, poor fit] |  |
| Cc1cc2cc(C(c3nnnn3CC3CCCO3)N3CCCc4ccccc43)c(=O)[nH]c2cc1C (stereo unspecified) | inconclusive: 25.1 µM [inhibitor, single point] |  |
| COc1ccc(-c2nnn(CC(=O)N(Cc3ccccc3Cl)C(C(=O)NCC3CCCO3)c3ccco3)n2)cc1 (stereo unspecified) | inconclusive: 3.16 µM [inhibitor, full curve, poor fit] |  |
| CN1CCN(c2ccc(C(F)(F)F)cc2NC(=O)Nc2ccccc2)CC1 | inconclusive: 35.5 µM [inhibitor, single point] |  |
| Cc1ccccc1-c1cc2c(c3c1ccn3C)C1CCC2O1 (stereo unspecified) | inconclusive: 35.5 µM [inhibitor, single point] |  |
| CN1CC(=O)N2C(c3cccc([N+](=O)[O-])c3)c3[nH]c4ccccc4c3C[C@H]2C1=O (stereo partly specified) |  | inactive: -9.66% |
| Cc1ccc(NC(=O)CN(C)CC(=O)Nc2ccccc2-c2ccccc2)cc1 | inconclusive: 12.6 µM [inhibitor, single point] |  |
| CN1CCCC(CN2c3ccccc3Sc3ccccc32)C1 (stereo unspecified) | inconclusive: 25.1 µM [inhibitor, single point] |  |
| Cc1ccn2c(CC(C)(C)C)c(-c3ccc(F)cc3)nc2c1 | inconclusive: 22.4 µM [inhibitor, single point] |  |
| Cc1cccc(-n2nc3c(c2NC(=O)CCCl)CSC3)c1 | inconclusive: 7.08 µM [inhibitor, full curve] |  |
| O=C(Nc1ccc(Br)cc1)c1ccc(F)c(S(=O)(=O)N2CCc3ccccc32)c1 | active: 11.2 µM |  |
| O=C(NCc1cccs1)C1CCN(C(=O)N2CCOc3ccc(Cl)cc32)CC1 | inconclusive: 12.6 µM [inhibitor, single point] |  |
| O=C(c1ccc2oc(CCc3ccccc3)nc2c1)N1CC[C@H](O)C1 |  | inactive: 1.17% |
| CC(=O)N1CCc2cc(S(=O)(=O)NC(Cc3ccccc3)C(=O)NCc3ccc(C)cc3)ccc21 (stereo unspecified) | inconclusive: 15.8 µM [inhibitor, partial curve, poor fit] |  |
| CCN(Cc1ccccc1)C(=O)C1CCN(Cc2ccc(SC)cc2)CC1 | inconclusive: 35.5 µM [inhibitor, partial curve, poor fit] |  |
| Cc1cc(C)cc(OCC(=O)N2N=C(c3cccnc3)CC2(O)C(F)(F)F)c1 (stereo unspecified) | inconclusive: 5.01 µM [inhibitor, partial curve, poor fit] |  |
| CC(C)(C)OC(=O)N(CCc1ccccc1)Cc1ccccc1OCc1cccc(NC(=O)C2CCC2)c1 | inconclusive: 22.4 µM [inhibitor, partial curve, poor fit] |  |
| O=c1c2cnn(-c3ccccc3)c2ncn1Cc1ccccc1F | inconclusive: 0.447 µM [inhibitor, partial curve, poor fit] |  |

| Structure (SMILES) | Potency | activity, negative = inhibition |
| --- | --- | --- |
| Nc1ccc(S(=O)(=O)O)cn1 | inconclusive: 5.62 µM [inhibitor, single point] |  |
| CN(C)c1ccnc2sc3c(NCC(O)CO)ncnc3c12 (stereo unspecified) |  | inactive: 3.94% |
| COc1ccccc1CN1Cc2cccc3c2[C@@H](CC1=O)[C@H](O)[C@H](O)C3 | inconclusive: 8.91 µM [inhibitor, partial curve, poor fit] |  |
| O=C(/C(=C/O)N=Nc1ccccc1)c1cccs1 | inconclusive: 25.1 µM [inhibitor, single point] |  |
| O=C1CCCN1CC(O)CS(=O)(=O)c1ccccc1 (stereo unspecified) | inconclusive: 2.24 µM [inhibitor, partial curve, poor fit] |  |
| Cc1ccccc1C1CCCN(C(=O)c2cc(COc3c(F)cccc3F)on2)C1 (stereo unspecified) | inconclusive: 28.2 µM [inhibitor, single point] |  |
| CC(=O)Nc1c(Br)cc2c(c1Br)Cc1cc(Br)ccc1-2 | inconclusive: 35.5 µM [inhibitor, single point] |  |
| Cc1ccc(C)c(CN2CCC(CNC(=O)Nc3ccc(F)c(Cl)c3)CC2)c1 | inconclusive: 35.5 µM [inhibitor, single point] |  |
| CCc1nnc(NC(=O)CCC(=O)N2CCN(Cc3ccc(F)cc3)CC2)s1 |  | inactive: -0.288% |
| Cc1ccc(O)c(C2=NNC(O)(C(F)(F)F)C2)c1 (stereo unspecified) | inconclusive: 35.5 µM [inhibitor, single point] |  |
| Cc1ccc(NC(=O)N2CCN(c3cc(-c4noc(C)n4)ccc3C)CC2)c(C)c1 | inconclusive: 5.62 µM [inhibitor, single point] |  |
| CCOC(=O)N1CCN(C(=O)C2CCCN(S(=O)(=O)c3ccc(OCC)cc3)C2)CC1 (stereo unspecified) |  | inactive: 0% |
| COc1cccc(C(c2nnnn2C2CCCCC2)N2CCN(C/C=C/c3ccccc3)CC2)c1OC (stereo unspecified) | inconclusive: 12.6 µM [inhibitor, partial curve, poor fit] |  |
| CCc1ccc(Nc2cc(=O)n(C3CCCCC3)c(=O)[nH]2)cc1 | inconclusive: 35.5 µM [inhibitor, single point] |  |
| O=C(CSc1nnc(-c2cccnc2)o1)NNC(=O)c1ccc(Br)cc1 | inconclusive: 11.2 µM [inhibitor, single point] |  |
| COC(=O)[C@H](C)N(Cc1ccc(Cl)c(Cl)c1)S(=O)(=O)CCN1CCCC1 |  | inactive: -1.72% |
| O=C1NCCN1CCNc1nc(NCC2CC2)nc2cc(-c3ccccc3)sc12 |  | inactive: -10.3% |
| Cc1ccsc1C(=O)N1CCCC(CCC(=O)NCc2ccccc2F)C1 (stereo unspecified) | inconclusive: 15.8 µM [inhibitor, single point] |  |
| Cc1onc(-c2ccccc2)c1C(=O)Nc1ccccc1NC(=O)c1c(-c2ccccc2)noc1C | inconclusive: 6.31 µM [inhibitor, single point] |  |
| CCCNC(=O)c1sc2c(c1C(=O)Nc1ccccn1)CCCC2 | inconclusive: 22.4 µM [inhibitor, partial curve, poor fit] |  |
| O=C(Nc1ccccc1F)C1COc2ccccc2O1 (stereo unspecified) |  | inactive: 0.398% |
| CCNC(=O)c1ccc(CSc2nc3ccncc3n2Cc2ccc(F)cc2)cc1 | inconclusive: 31.6 µM [inhibitor, partial curve, poor fit] |  |

| Structure (SMILES) | Potency | activity, negative = inhibition |
| --- | --- | --- |
| CC(=O)Nc1nc(-c2ccccc2)nc(-c2ccccc2OC(C)=O)n1 | inconclusive: 10 µM [inhibitor, partial curve] |  |
| Cc1c(NC(=O)c2cc(-c3ccc(Cl)cc3)on2)c(=O)n(-c2ccccc2)n1C | inconclusive: 35.5 µM [inhibitor, single point] and inconclusive: 12.6 µM [inhibitor, single point] |  |
| c1ccc(C2=Nn3c(Cn4nnc5ccccc54)nnc3SC2)cc1 |  | inactive: -1.24% |
| Cc1ccc(CNC(=O)c2cc(-c3ccccc3C)nn2CC2CC(c3cccnc3)=NO2)cc1 (stereo unspecified) | inconclusive: 35.5 µM [inhibitor, single point] |  |
| O=C(NCc1ccc(F)cc1)c1ccc2c(c1)nnn2C1CCCC1 | inconclusive: 5.62 µM [inhibitor, single point] |  |
| O=C(Nc1ccc(S(=O)(=O)NCc2ccccc2)cc1)c1ccc(Br)o1 |  | inactive: -29.6% |
| CCCn1nc(NS(=O)(=O)c2cccc3nonc23)c2cc3cccc(C)c3nc21 | inconclusive: 35.5 µM [inhibitor, single point] |  |
| COc1ccc(-c2nnc(NC(=O)Cc3ccccc3)s2)c(OC)c1 |  | inactive: -1.75% |
| CCOc1ccc(NC(=O)N2CCN(Cc3cc(=O)n4nc(-c5ccc(OC)cc5)sc4n3)CC2)cc1 |  | inactive: -0.0165% |
| COc1cccc(/C=N/NC(=O)c2nnn(-c3nonc3N)c2C(C)C)c1OCc1ccc(F)cc1 | inconclusive: 35.5 µM [inhibitor, single point] |  |
| Cn1c(=O)c2c(nc(N/N=C/c3ccc(OC(=O)c4ccco4)cc3)n2Cc2ccccc2)n(C)c1=O | inconclusive: 6.31 µM [inhibitor, single point] |  |
| C/C(=N\Nc1ccc(Cl)c(C(=O)O)c1)c1ccc(Br)s1 |  | inactive: -20.9% |
| O=C(COc1ccc([N+](=O)[O-])cc1)Nc1ccc2c(c1)CCC2 |  | inactive: -1.25% |
| Oc1c(CN2CCc3ccccc3C2)cc(Cl)c2cccnc12 | active: 5.62 µM |  |
| CC(C)N(Cc1nc(-c2ccc(Cl)cc2)no1)C(=O)/C=C/c1ccccc1 | inconclusive: 35.5 µM [inhibitor, single point] |  |
| COc1ccc(C)cc1N/C(N)=N/c1nc(C)cc(C)n1 | inconclusive: 35.5 µM [inhibitor, single point] |  |
| CN1/C(=C\C(=O)C[n+]2cccc(C(N)=O)c2)C(C)(C)c2ccccc21 |  | inactive: 4.26% |
| CC1Cc2ccccc2N1C(=O)COc1nc2ccccc2nc1N1CCOCC1 (stereo unspecified) | inconclusive: 35.5 µM [inhibitor, single point] |  |
| Cc1ccc(NC(=O)c2ccc(NC(=O)c3ccccc3)cc2)cc1C | inconclusive: 12.6 µM [inhibitor, single point] |  |
| Cc1nn2c(nc(N3CCOCC3)c3ccccc32)c1C=C(C#N)C#N |  | inactive: 0.575% |
| CC(=O)c1ccc(NC(=O)C2CCC(CNS(=O)(=O)c3cccs3)CC2)cc1 (stereo unspecified) |  | inactive: -11.5% |
| Fc1ccc(NC(=S)NC2CCCCC2)c(F)c1F | inconclusive: 2.82 µM [inhibitor, partial curve, poor fit] |  |
